Results as given in publication PMC12136788.
This is one part of the list.

T1: UNK ZnF1-3 (human, UniProt Q9C0B0 31-174)
T1 sequence: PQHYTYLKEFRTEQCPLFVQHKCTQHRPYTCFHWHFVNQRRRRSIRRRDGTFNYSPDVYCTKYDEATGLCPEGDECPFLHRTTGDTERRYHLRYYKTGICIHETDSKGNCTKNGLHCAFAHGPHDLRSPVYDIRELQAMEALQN

B1: chr10:17279496:17279497:+_ENSG00000026025_ENST00000224237|hu_hu|FALSE|FALSE (ssRNA)
RNA: GGGAGUUCUACAGUCCGACGAUCUUAAUGGUAUUCAAAAUACCUUUUAAAAAGUAUUCUAGCACAAGAUUUUUCUGUAAACUAGAUUAUGUUGUAAACUUUUUUCUAAAUCUUGUAGGAGUGUCGGUUGUUAAGAACUAGAGCCAACAGAGGAUUGAGCAUCA
B2: 31918693_31919420_4223_CDS_ENSMUSG00000042323_ENSMUST00000112095|mouse|control|control (ssRNA)
RNA: GGGAGUUCUACAGUCCGACGAUCAUCAUCUCCUCCUUCUAACUCUGCAAAUUUAGCUUCUAGCAAUUGUAUCUUCUUUUCUAACAAAGGUGAGGGUUCCUUCUGAGGAAUGAUUGGUUUUCUGAAGUAGUAGAUUUCAUCAUCCAACAGAGGAUUGAGCAUCA
B3: chr10:34018870:34018871:+_ENSMUSG00000039485_ENSMUST00000047935|mus_mus|FALSE|FALSE (ssRNA)
RNA: GGGAGUUCUACAGUCCGACGAUCACGGUUCUUCACAGUACAUAGAUAUCGGGAACACAGCAGAAAGUAUGAAGCCUGGCUAGUUCUUGGUAAGAAUGUGUCAAGCUUUCUUGUGGCAGAGAACCACUUAAAAAAAAAAAUGAACAACAGAGGAUUGAGCAUCA
B4: chr4:57314706:57314707:+_ENSG00000128050_ENST00000264221|hu_mus|hu_hu_hu_mus_True|48_58 (ssRNA)
RNA: GGGAGUUCUACAGUCCGACGAUCCAGAAUUUCAAAAAUAGCUUGUGUGGCAUGACUCAUGAUGUCCACUUCAGUCUGGCCUAUAAGAAGUCCAGCAAAACAGAAUUUUGCAGCAAUGAGUUGCUCCUCAGACCACUGUGGAUCCAACAGAGGAUUGAGCAUCA
B5: chr8:74858975:74858976:-_ENSG00000154582_ENST00000284811|hu_mus|hu_hu_hu_mus_True|1_8 (ssRNA)
RNA: GGGAGUUCUACAGUCCGACGAUCGACCUUGUAGGUAAAAUACAUGCACACUUUUGAUAGCACAUGUGAGGGGAUCUCUCUAAAAUUGACCUCGUUGGUUUCAUUCUCAGCAAACUGACCUGGACCACUCAACAUGGCUUUUAUCAACAGAGGAUUGAGCAUCA
B6: 94151974_94152094_2413_3pUTR_ENSMUSG00000020863_ENSMUST00000166312|mouse|control|control (ssRNA)
RNA: GGGAGUUCUACAGUCCGACGAUCAUCUUUGUUAUAUGUACUACACACUACAUACACAGCAAUAUAUACAUUUAUAACCAAACAAGACUGGGUUAAAAGAAAUUACUAGUAUAGGAUUUAAAGGAAAGGAACAGCUGGAAGUUUCAACAGAGGAUUGAGCAUCA
B7: chr10:19624517:19624518:-_ENSMUSG00000020003_ENSMUST00000020182|mus_mus|FALSE|FALSE (ssRNA)
RNA: GGGAGUUCUACAGUCCGACGAUCCUCAUUGUUUUCACUCCAGGUAACGUCAAACAAGCCGUCAUUCCAGUCAAAGCUUCUAAAAAUCUGAAGUCCAGAUUCAUUUUGAUCCAAUACUAAUAGAGUUCCACAGCCCGCGAUGCCCAACAGAGGAUUGAGCAUCA
B8: chr15:64983782:64983783:-_ENSG00000180304_ENST00000326005|perfect_dup|FALSE|FALSE (ssRNA)
RNA: GGGAGUUCUACAGUCCGACGAUCCCUGGAACAAUGUGCCUGCAGCACUGGAGCUGGGGACACUUACUCAACGGCAAAAUACUACUGUCCUGGGUGUUUAUCAUCCUCGGUGGCUCUGCUCAGGGUGGGAGGAGGCGGCGCGGGCAACAGAGGAUUGAGCAUCA
B9: chr13:14719544:14719545:+_ENSMUSG00000015671_ENSMUST00000170836|mus_mus|FALSE|FALSE (ssRNA)
RNA: GGGAGUUCUACAGUCCGACGAUCCAGAUAAUUGUGAGCCACCAUGUGGUUGCUGGGAUUUGAACUCAUGACCACUGAAAGAACAGUCAGAGCUCUUAACCGCUGAGCCAUCUCUCCAGCCCCAACUUUAAUUUUGCUGUUGUGCAACAGAGGAUUGAGCAUCA
B10: chr1:58468927:58468928:-_ENSMUSG00000026034_ENSMUST00000148330|mus_mus|mus_mus_mus_hu_False|8_48 (ssRNA)
RNA: GGGAGUUCUACAGUCCGACGAUCAAUUACUGAAAAAGAUGUUCAUUACCUUAGCUAUGUACUUAAUGAACCAAAUUACCCAAACAACAUAAAAUGUGCAAUAUAAAAAUGUUAAGAAUUUACAAAGAUUAAAAGCUUAACUUACAACAGAGGAUUGAGCAUCA
B11: chrX:71549400:71549401:+_ENSMUSG00000019087_ENSMUST00000019231|mus_hu|mus_mus_mus_hu_False|18_78 (ssRNA)
RNA: GGGAGUUCUACAGUCCGACGAUCGCAGUAGGAAGAGGGAAGCUCUUCAGUCCAGUGGUCACAAAACUGGGAAAGCAACAACACGGACACCGUCCCACCCUCAACCCCCCCACUGGCAUGUCACACAACAAUCUGGGUCAAAGACAACAGAGGAUUGAGCAUCA
B12: 41417256_41417376_2008_3pUTR_ENSMUSG00000025764_ENSMUST00000026865|mouse|control|control (ssRNA)
RNA: GGGAGUUCUACAGUCCGACGAUCCACACCAUUUUUCUGUUGUGCUGAUGAUAGGAGACGUGCUUCUGCAAAAGUCUUUUCUAAGCUCAGCAAGCUUUCUGAGACCUCCAGCCCCUCCCUUCUACCACAAAGACCUGGCUGCUUCAACAGAGGAUUGAGCAUCA
B13: 110073519_110076452_1125_3pUTR_ENSMUSG00000032481_ENSMUST00000088716|mouse|control|control (ssRNA)
RNA: GGGAGUUCUACAGUCCGACGAUCCCUUGGUAAGAUCUUCUUGCUCAUCUUCUUCCUUCUGACUUCUACGUUUCCCAUAAAGGCUAGCUUGUCCUUUCUUCCCGCUCUUCUUGCGGGACUCUGUGGCUGUGGGAGGAGGAGGAGCAACAGAGGAUUGAGCAUCA
B14: chr3:130683820:130683821:+_ENSG00000017260_ENST00000359644|hu_mus|FALSE|FALSE (ssRNA)
RNA: GGGAGUUCUACAGUCCGACGAUCGCCAUCGGAAGUGAGGAUGUGAGUAACAGUCAUCUCGUUCUUCGUCAGGGUUCCAGUUUUAUCUGAACAAAUCACAUUACAGCAGCCCAGUGUUUCCACAAUAGGCAAUUUCUUUACAAUCAACAGAGGAUUGAGCAUCA
B15: 136232880_136234153_406_CDS_ENSG00000148248_ENST00000371989|human|control|control (ssRNA)
RNA: GGGAGUUCUACAGUCCGACGAUCCCAUAAAAUGCUGUAGGCAAUCGUCUGCAGAGCUAUGAUUCCAAAGAGCCCGAAGCAGGCGUACUGCACGAAGUUCCUGCUCAACACCAGGACGCAGCCAGUCAGCUGUCCCAGCAAGUUCAACAGAGGAUUGAGCAUCA
B16: chr1:111986530:111986531:-_ENSG00000116455_ENST00000235090|hu_mus|motif|central (ssRNA)
RNA: GGGAGUUCUACAGUCCGACGAUCAUUGCAGGCCAUCUGUGAUGCCGGCUUGGGACAGCGGGUAUCCCAGAGCAAAAUUCGGCUGUCCUCACUACAUGAAAGAAACACAGAGUCUUUGUGGGGAGAGGCAGCAACACAGGUAACCAACAGAGGAUUGAGCAUCA
B17: chr6:31461392:31461393:+_ENSMUSG00000025609_ENSMUST00000026699|mus_hu|FALSE|FALSE (ssRNA)
RNA: GGGAGUUCUACAGUCCGACGAUCCAGACCUCUAGACUAGAAGCUUUGGAUAGCCAAGUCAUUUCAGCAUUAAAACAAAUCACAGGGAGAUAGAAGCCAGGGUCUAGAACCACAAAAGAAUAGCGUUAUUUGACUAAUAAGGAUCAACAGAGGAUUGAGCAUCA
B18: chr4:113189463:113189464:+_ENSG00000138660_ENST00000274000|hu_mus|FALSE|FALSE (ssRNA)
RNA: GGGAGUUCUACAGUCCGACGAUCCACAGGGUUCACAAACCCGGAGUACUCAGAGUUGCCGUUGUCGUCCAUCUCGGCACUGACAAAGUCGUUCUCCCACUCCAGCCCGUUGGAGUCAUCCGAGGCGGACGUGGGGUUGCUGCCCAACAGAGGAUUGAGCAUCA
B19: chr14:20710596:20710597:-_ENSMUSG00000043004_ENSMUST00000160013|mus_hu|motif|central (ssRNA)
RNA: GGGAGUUCUACAGUCCGACGAUCAUCCUGUCGAUAUUGGCUUCCAUCUUAAGCUGCUCUACCAGCUUCCUGGCUUGUGCGGUGCUGGCGGUGUUGUUGCUGGCCAUCGGAGUGCUGGAUAGAUCUUUCAGAAACACUCUUCAGCAACAGAGGAUUGAGCAUCA
B20: chr4:140556289:140556290:+_ENSMUSG00000036622_ENSMUST00000037055|mus_mus|mus_mus_mus_hu_False|28_78 (ssRNA)
RNA: GGGAGUUCUACAGUCCGACGAUCGAUGGAGCUCACCAGGCCCCCUUUUGCCGUGCAGAACCCUGUCCGGGUCACCACUGCCAGGACGUGCGGUCCCACAUAGGCCCGGGCCUGCAGGAUGAGGGUCCCGCAGAAGAGUGUGUGCAACAGAGGAUUGAGCAUCA
B21: chr10:33190432:33190433:-_ENSG00000150093_ENST00000302278|hu_mus|hu_hu_hu_mus_True|78_78 (ssRNA)
RNA: GGGAGUUCUACAGUCCGACGAUCUACAUUUUCCAAACCUGCAUGUGAAUAAAACCCUGGCAAUAUUGCCCCAAAACUACCCUACUGUGACUAAGAUGCUGCUGCUGUGAGCUUGGUGUUGCAAAAUCCGCCUGAGUAGGAUUCCAACAGAGGAUUGAGCAUCA
B22: chrX:98862621:98862622:+_ENSMUSG00000034160_ENSMUST00000044475|mus_hu|mus_mus_mus_hu_False|28_88 (ssRNA)
RNA: GGGAGUUCUACAGUCCGACGAUCCUGCAUCUCCUUUAGAGUGUUUCCCAUAUUGGAGUAGGCAUCAGCAAAGGUAGGACUGAUUCGAAUAGCCUCCUUAUAAUGCAUCAGUGCUUCCUGCAGUUUUCCCUGCUGCUGCAGUACCAACAGAGGAUUGAGCAUCA

Target: T1, UNK ZnF1-3
Experiment: nsRBNS (natural sequence RNA bind-n-seq); RBNS binding buffer (assumed for nsRBNS): 25 mM Tris pH 7.5, 150 mM KCl, 3 mM MgCl2, 0.01% Triton X-100, 500 ug/ml BSA, 20 U/ml SUPERase-In, 4 C; UNK is unkempt and MSI1 is Musashi-1; names of the RNAs are library labels; protein concentration not given here; high values mean tight binding

| Binder | binding signal [enrichment R] |
| --- | --- |
| B1 | 0.816 |
| B2 | 0.725 |
| B3 | 1.69 |
| B4 | 0.975 |
| B5 | 0.722 |
| B6 | 1.31 |
| B7 | 0.646 |
| B8 | 1.19 |
| B9 | 0.924 |
| B10 | 1.15 |
| B11 | 1.93 |
| B12 | 0.772 |
| B13 | 0.511 |
| B14 | 1.25 |
| B15 | 0.902 |
| B16 | 1.21 |
| B17 | 1.95 |
| B18 | 0.53 |
| B19 | 0.591 |
| B20 | 1.38 |
| B21 | 1.2 |
| B22 | 0.923 |
